From publication PMC4336329 (PLoS ONE, 2015)
About 2,200 (0.71%) of roughly 310,000 compounds showed an effect of 50% or more. The effect is printed as a negative number. The list shows a part of the results. Where a SMILES comes first, the peptide text is derived from it.

Molecular target: human ether-à-go-go-related gene (hERG) potassium channel (human, UniProt Q12809)
Experiment: primary screen, population patch clamp on CHO cells stably expressing hERG

Chain of human ether-à-go-go-related gene (hERG) potassium channel (Q12809 whole entry, looked up): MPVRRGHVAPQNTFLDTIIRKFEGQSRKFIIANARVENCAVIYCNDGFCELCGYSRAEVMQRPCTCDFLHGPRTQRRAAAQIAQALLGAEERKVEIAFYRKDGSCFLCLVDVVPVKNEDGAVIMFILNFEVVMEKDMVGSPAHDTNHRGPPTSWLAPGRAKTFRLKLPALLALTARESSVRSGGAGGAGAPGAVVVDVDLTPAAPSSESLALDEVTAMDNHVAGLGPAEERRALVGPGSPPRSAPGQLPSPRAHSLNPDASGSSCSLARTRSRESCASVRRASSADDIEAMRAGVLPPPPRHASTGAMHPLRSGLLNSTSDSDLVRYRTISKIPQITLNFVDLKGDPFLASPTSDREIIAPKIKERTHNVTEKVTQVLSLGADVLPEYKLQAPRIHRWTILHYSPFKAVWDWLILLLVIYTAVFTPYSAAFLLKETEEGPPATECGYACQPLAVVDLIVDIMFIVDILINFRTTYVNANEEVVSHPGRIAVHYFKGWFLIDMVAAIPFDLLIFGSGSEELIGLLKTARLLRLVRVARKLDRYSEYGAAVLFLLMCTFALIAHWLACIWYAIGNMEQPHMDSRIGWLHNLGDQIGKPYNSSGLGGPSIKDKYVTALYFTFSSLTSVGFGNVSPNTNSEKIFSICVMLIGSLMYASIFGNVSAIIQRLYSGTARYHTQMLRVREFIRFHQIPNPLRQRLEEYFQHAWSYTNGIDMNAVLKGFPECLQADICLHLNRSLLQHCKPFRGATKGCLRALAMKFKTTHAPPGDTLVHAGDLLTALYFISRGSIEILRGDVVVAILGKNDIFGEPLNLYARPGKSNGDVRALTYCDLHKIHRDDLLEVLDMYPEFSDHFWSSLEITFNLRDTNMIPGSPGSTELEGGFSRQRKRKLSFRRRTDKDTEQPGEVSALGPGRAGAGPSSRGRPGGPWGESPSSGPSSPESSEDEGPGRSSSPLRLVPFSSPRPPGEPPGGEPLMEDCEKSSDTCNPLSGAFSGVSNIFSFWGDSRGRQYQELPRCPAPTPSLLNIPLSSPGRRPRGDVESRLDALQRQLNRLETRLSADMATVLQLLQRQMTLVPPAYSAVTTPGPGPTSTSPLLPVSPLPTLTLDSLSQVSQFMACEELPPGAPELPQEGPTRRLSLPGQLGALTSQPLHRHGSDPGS

SMILES | hERG current change (%, negative = inhibition) at 1uM [%]
CC(=O)c1ccc(NC(=O)Nc2ccc(NS(=O)(=O)c3ccc(C)cc3)cc2)cc1 | 7.59
Cl.c1ccc(-c2nnc(CN3CCCCC3)o2)cc1 | 15.7
COc1cccc(NC(=O)Cn2c(SCC(=O)N3CCOCC3)nc3ccccc32)c1 | 8.73
COc1cc([N+](=O)[O-])c(OC)cc1SCc1n[nH]c(=S)n1-c1ccc(C)cc1 | 11.8
CN(Cc1nc(Cc2cccc(C(F)(F)F)c2)no1)C1CC(C)(C)NC(C)(C)C1 | -10.6
Cc1ccc(NCC(O)Cn2cnc3c2c(=O)n(C)c(=O)n3C)cc1 (stereo not drawn) | -9.37
O=C(NCCNC(=O)c1cnccn1)c1cccc(Cl)c1 | 12.4
N#Cc1nc(COc2cccc(Cl)c2)oc1NCCN1CCOCC1 | -22.3
Cc1ccc([N+](=O)[O-])c(OCCN2CCNCC2)c1.O=C(O)C(=O)O | 7.74
COc1ccc(NC(=O)COC(=O)CCCc2c[nH]c3ccccc23)cc1OC | 3.15
CCCCCO | 12.6
Cc1ccc(CNC(=O)CCS(=O)(=O)c2cccc3nsnc23)cc1 | 11.7
CC1CCCCN1C(=O)C12CCC(C)(C(=O)C1)C2(C)C (stereo not drawn) | 1.12
Cc1ccccc1NC(=O)CS(=O)(=O)c1cn(CC(=O)N2CCOCC2)c2ccccc12 | 6.26
O=C(NCC1CCCO1)C(c1cccs1)N(C(=O)Cn1nnc(-c2cccs2)n1)C1CCCC1 (stereo not drawn) | -4.19
CN(C)C(=O)Cn1c(SCC(=O)NCc2ccc3c(c2)OCO3)nc2ccccc21 | 11
COc1cc(/C=C/c2[nH]c(=O)[nH]c(=O)c2[N+](=O)[O-])cc(OC)c1O | 14.8
O=C(NC1CCCC1)c1cc(-c2ccccc2)nc2ccccc12 | 20.4
Cc1nc(NC(=O)/C=C/c2ccc(F)cc2)sc1C(=O)N(C)C | 3.54
O=C1NC(=O)/C(=C\c2ccc(N3CCOCC3)o2)N1 | 7.43
Cc1ccccc1OCC(=O)Nc1nnc(C2CCCC2)s1 | 13.6
Cc1ccc2nc(SCc3nc4c(cnn4-c4ccccc4)c(=O)[nH]3)[nH]c2c1 | 17.3

SMILES | hERG current change (%, negative = inhibition) at 1uM [%]
Cc1cc(/C(N)=N/OC(=O)Nc2ccccc2)no1 | 0.305
Cc1ccc(NC(=O)Cn2cc(C=O)c3ccccc32)cc1 | 8.4
COc1cccc(/C=N/NC(=O)C(C)n2nnc3ccccc32)c1 (stereo not drawn) | 12.2
CC(=O)NC(Cc1ccccc1)C(=O)NC(Cc1ccccc1)C(=O)O (stereo not drawn) (Ac-Phe-Phe-OH; configuration not given here) | 14.4
CCS(=O)(=O)c1ccc2oc(SCC(=O)c3c(N)n(C4CC4)c(=O)[nH]c3=O)nc2c1 | 21.8
C[C@]12C=CC(=O)C=C1CC[C@@H]1[C@@H]2[C@@H](O)C[C@@]2(C)[C@H]1CC[C@]2(O)C(=O)COC(=O)CCC(=O)NCCc1ccc(O)cc1 | 5.79
O=C(NC(=S)Nc1ccccc1N1CCOCC1)c1sc2ccccc2c1Cl | 2.57
O=C(NC(=S)Nc1nc(-c2ccc(Cl)cc2)cs1)c1cccs1 | 16.4
Cc1ccc2c(c1)C1C=CCC1C(C(=O)NCCCN1CCOCC1)N2 (stereo not drawn) | 1.82
O=C(NCCN1CCOCC1)c1cc(-c2cccc(O)c2)on1 | 7.87
COc1ccc(NC(=O)C(Cc2ccccc2)n2cccc2)c(OC)c1 (stereo not drawn) | -0.667
CCOC(=O)N1CCN(C(=O)C2CC(=O)N(c3ccc(OC)cc3)C2c2ccc(OC)cc2)CC1 (stereo not drawn) | -3.04
CC(NC(=O)Cn1nc(C(=O)O)c2ccccc2c1=O)c1ccccc1 (stereo not drawn) | 4.85
CC(=O)c1cccc(NC(=O)c2cccc3ccccc23)c1 | 16.4
CCC(Sc1nc2ncccc2[nH]1)C(=O)NCCc1ccccc1 (stereo not drawn) | 9.29
COc1ccc(NS(=O)(=O)c2ccc(OCC(=O)N3CCOCC3)cc2)cc1Cl | 3.9
O=C(CCN1C(=O)/C(=C\c2cccc(Br)c2)SC1=S)NCCCN1CCOCC1 | 2.23
O=C(Nc1ncc(C(F)(F)F)cc1Cl)c1ccc(S(=O)(=O)N2CCOCC2)cc1 | -1.57
CCOc1ccc(CN(C)C(=O)CCNC(=O)c2ccco2)cc1 | 6.75
Cc1nc2cc3c(cc2c(C)c1C(=O)OC(C)C)OCO3.Cl | 4.54
CC(C(=O)N1CCc2ccccc21)N(C)CC(=O)Nc1ccc(F)cc1 (stereo not drawn) | -3.18
COC(=O)N1CCN(c2ccc(C(C)=O)cc2)CC1 | -6.57

SMILES | hERG current change (%, negative = inhibition) at 1uM [%]
CCOc1ccccc1C(=O)Nc1ccc(S(=O)(=O)N2CCN(C)CC2)cc1 | 13.8
COc1ccc(C2=NN(CCC(=O)NCc3cccs3)C(=O)CC2)cc1 | -3.86
O=C(NCc1ccco1)c1ccc2nc3sc4c(c3c(=O)n2c1)CCCC4 | 8.21
COc1ccccc1N1CCN(C(=O)Cn2ncc3c([nH]c4ccccc43)c2=O)CC1 | 5.56
CC1=C(C(=O)N(C)C)C(c2ccc(C)s2)NC(=S)N1 (stereo not drawn) | 11.6
CCOc1ccc(/C=N/NC(=O)CNC(=O)c2ccc(S(=O)(=O)N3CCOCC3)cc2)cc1 | 14.4
CCn1cc(C(=O)NC(C)C23CC4CC(CC(C4)C2)C3)cn1 (stereo not drawn) | 4.6
c1csc(-c2nnc(N3CCOCC3)c3ccccc23)c1 | 6.88
Cc1nc2ccccc2n1CCC(=O)Nc1cccc(F)c1 | 12.4
COC(=O)c1[nH]c2ccc(Br)cc2c1NC(=O)CN1CCCCC1CCO (stereo not drawn) | 5.4
Cc1cc(=O)oc2cc(NC(=O)c3cc(F)ccc3F)ccc12 | 12.4
C=CCOCCn1[nH]c2ccccc2c1=O | 8.64
O=C(Cn1cc([N+](=O)[O-])cn1)N1CCc2ccccc21 | 7.32
COC(=O)c1ccc(N2CCN(c3ccccc3)CC2)c(NC(=O)C2CC2)c1 | -20.7
CCN1CCN(c2ncc(C(=O)Nc3cc(Cl)ccc3OC)c3ccccc23)CC1 | -4.26
Cc1ccc(OCCCN2CCOCC2)c([N+](=O)[O-])c1.O=C(O)C(=O)O | 0.484
CC(C)CN1CCN(Cc2cccc3c2OCO3)CC1CCO (stereo not drawn) | 8.37
Cc1cc2ncn(S(=O)(=O)N3CCCCC3)c2cc1C | 11.6
N#CC1=C(N)N2C(=C(C#N)C1c1ccc(Br)cc1)Nc1ccccc12 (stereo not drawn) | 5.45
COc1cc(CC(=O)Nc2cccc(SC)c2)cc(OC)c1OC | 42.1
Cl.Nc1nc(N2CCCCC2)nc2ccccc12 | -15.9
CN1CCCC(OC(=O)c2ccc(C#N)cc2)C1.Cl (stereo not drawn) | 12.2

SMILES | hERG current change (%, negative = inhibition) at 1uM [%]
COc1ccc(-n2ccc(=O)c3c2CCCC3=O)cc1 | 11.2
C=CCn1c(SC(C)C(=O)NCCC2=CCCCC2)nc2ccccc2c1=O (stereo not drawn) | -13.7
Cc1cccc(N(C)S(=O)(=O)c2c(C)[nH]c(C)c2C(=O)N2CCCC2)c1 | 7.4
O=C(CCNC(=O)OCc1ccccc1)NC1CCCCCC1 | 15.3
COc1ccc(NS(=O)(=O)c2ccc(SC)cc2)c(OC)c1 | 2.38
Cc1ccc(NC(=O)c2cnn(-c3ccccc3)c2NC(=O)c2ccco2)cc1 | 5.77
O=C1c2cccc3cccc(c23)C(=O)N1CCCN1CCN(c2ccc(F)cc2)CC1 | -26.5
Cc1ccc(O)c(-c2cc(C(=O)Nc3ccc(S(=O)(=O)Nc4nc(C)cc(C)n4)cc3)[nH]n2)c1 | -2.13
CCOC(=O)c1ccc(-c2ccc(/C=N/NC(=O)CN(c3cccc(C)c3)S(C)(=O)=O)o2)cc1 | 7.87
CNc1snc(C)c1C(=O)OCC(=O)c1ccc(OC)c(F)c1 | 6.59
Cc1ccc2c(CC(=O)OC(C)C(=O)NCc3ccc4c(c3)OCO4)coc2c1 (stereo not drawn) | 21.7
O=C1N(Cc2cccc(Cl)c2)C[C@@H]2C[C@@H](c3ccco3)N3CCC[C@@]123 | 2.89
CN1CCC(N(C)CC(=O)Nc2ccc3c(c2)OC(F)(F)O3)CC1.O=C(O)C(=O)O | 4.53
Cc1onc(-c2ccccc2Cl)c1C(=O)NCc1ccc(F)cc1 | 13.6
COc1ccc(Cl)cc1Nc1nc2ccc(C)cc2n2cnnc12 | 21.4
Cc1cc2oc(=O)cc(CN(C)Cc3ccc(OC(F)F)cc3)c2cc1Cl | 13.8
Clc1ccc(OCc2nc(-c3ccncc3)no2)cc1 | 7.49
CCOc1ccc2nc(SC3CC(=O)N(c4cccc(OC)c4)C3=O)sc2c1 (stereo not drawn) | 17.4
COc1ccc(-n2c(Cc3cccc([N+](=O)[O-])c3)nc3ccccc3c2=O)cc1 | -8.06
c1ccc(CN2OCC3Cn4c(nc5ccccc54)C32)cc1 (stereo not drawn) | 18.9
CSCCC(NC(=O)c1ccccc1Cl)C(=O)N1CCN(c2ccccn2)CC1 (stereo not drawn) | -8.83
